# Assay results taken from the supplement of paper PMC8728848.
# The other results are listed elsewhere or left out.
# B1: PV12658A-bvu-496-32-496 (Bacteroides vulgatus) (protein)
# chain: DLDGAITTPAAVELALNGIYYSLPGNGFNVIFPTVSGSFKAGTMWRQEIVSAGNAVYYSERMLPTLSFSDATEWDADYAVIKNANFLETACNRMSDGEFSGNRRAEVLGEIAYLRALAYFNILVRYCEFWDMNSEYGVVMRNEAPSVSNALKARSSVADSYQYILDQLEIAIEKAPDWKKLSQASKEAAKALKARVLLYAGKYTEAVAAVNDAIDTNSPLPEANYGDVFDKFSTTKEILFARVFDQKDATNTSTRQQCYGNSPTKKQGYWGPTNEYVELVGDDPRADAIFSKVDSLMDSRSSAVAYNLKSVKKLLNDANDMPVIFSRVSELYLIKAEALYRSGASISEAYAPIRKLRERAGAEIILPANNEELETAIFNEWMLELSFENWHEWFAMIRFAGYTEKPDFTRLLALNKTLREALEKEYEKSEAQGDNYYQRIIDRRIDAIPSSEISSNLECKQNPGY
# Experiments:
# Experiment in all cases: glycan array binding signal (z-score within array); higher = stronger binding
# Conditions in all cases: glycan notation: IUPAC condensed, linker removed
# [1] = target: Fuc(a1-2)Gal(b1-4)GlcNAc(b1-3)Gal(b1-4)GlcNAc(b1-3)Gal(b1-4)GlcNAc
# Method in brief: (§1)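 Negative Z-scores can be read as non-binding. The Z-score is calculated within each array and then averaged across arrays of one protein sequence at different concentrations or buffers and across linkers. Arrays, 3228 in all, were curated from the Consortium for Functional Glycomics database and kept only where the protein sequence was available.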
# [2] = target: Fuc(a1-2)Gal(b1-4)GlcNAc(b1-3)GalNAc
# Method in brief: as §1
# [3] = target: Fuc(a1-2)Gal(b1-4)GlcNAc(b1-3)[Fuc(a1-2)Gal(b1-4)GlcNAc(b1-6)]GalNAc
# Method in brief: as §1
# [4] = target: Fuc(a1-2)Gal(b1-4)GlcNAc(b1-3)[Fuc(a1-3)[Gal(b1-4)]GlcNAc(b1-6)]Gal(b1-4)Glc
# Method in brief: as §1
# [5] = target: Fuc(a1-2)Gal(b1-4)GlcNAc(b1-6)GalNAc
# Method in brief: as §1
# [6] = target: Fuc(a1-2)Gal(b1-4)GlcNAc6S
# Method in brief: as §1
# [7] = target: Fuc(a1-2)Gal(b1-4)[Fuc(a1-3)]GlcNAc
# Method in brief: as §1
# [8] = target: Fuc(a1-2)Gal(b1-4)[Fuc(a1-3)]GlcNAc(b1-2)Man(a1-3)[Fuc(a1-2)Gal(b1-4)[Fuc(a1-3)]GlcNAc(b1-2)Man(a1-6)]Man(b1-4)GlcNAc(b1-4)[Fuc(a1-6)]GlcNAc
# Method in brief: as §1
# [9] = target: Fuc(a1-2)Gal(b1-4)[Fuc(a1-3)]GlcNAc(b1-2)[Fuc(a1-2)Gal(b1-4)[Fuc(a1-3)]GlcNAc(b1-4)]Man(a1-3)[Fuc(a1-2)Gal(b1-4)[Fuc(a1-3)]GlcNAc(b1-2)Man(a1-6)]Man(b1-4)GlcNAc(b1-4)GlcNAc
# Method in brief: as §1
# [10] = target: Fuc(a1-2)Gal(b1-4)[Fuc(a1-3)]GlcNAc(b1-3)Gal(b1-4)[Fuc(a1-3)]GlcNAc
# Method in brief: as §1
# [11] = target: Fuc(a1-2)Gal(b1-4)[Fuc(a1-3)]GlcNAc(b1-3)Gal(b1-4)[Fuc(a1-3)]GlcNAc(b1-3)Gal(b1-4)[Fuc(a1-3)]GlcNAc
# Method in brief: as §1
# [12] = target: Fuc(a1-2)Gal(b1-4)[Fuc(a1-3)]GlcNAc(b1-3)GalNAc
# Method in brief: as §1
# [13] = target: Fuc(a1-2)Gal(b1-4)[Fuc(a1-3)]GlcNAc(b1-3)[Neu5Ac(a2-6)Gal(b1-4)GlcNAc(b1-6)]Gal(b1-4)Glc
# Method in brief: as §1
# [14] = target: Fuc(a1-2)Gal3S(b1-4)GlcNAc
# Method in brief: as §1
# [15] = target: Fuc(a1-2)Gal6S(b1-3)GlcNAc
# Method in brief: as §1
# [16] = target: Fuc(a1-2)Gal6S(b1-3)GlcNAc6S
# Method in brief: as §1
# Fuc(a1-2)Gal6S(b1-4)Glc = target: Fuc(a1-2)Gal6S(b1-4)Glc
# Method in brief: as §1
# [17] = target: Fuc(a1-2)Gal6S(b1-4)Glc6S
# Method in brief: as §1
# Fuc(a1-2)[Gal(a1-3)]Gal = target: Fuc(a1-2)[Gal(a1-3)]Gal
# Method in brief: as §1
# [18] = target: Fuc(a1-2)[Gal(a1-3)]Gal(b1-3)GalNAc
# Method in brief: as §1
# [19] = target: Fuc(a1-2)[Gal(a1-3)]Gal(b1-3)GalNAc(b1-3)Gal(a1-4)Gal(b1-4)Glc
# Method in brief: as §1
# [20] = target: Fuc(a1-2)[Gal(a1-3)]Gal(b1-3)GlcNAc
# Method in brief: as §1
# [21] = target: Fuc(a1-2)[Gal(a1-3)]Gal(b1-3)GlcNAc(b1-2)Man(a1-3)[Fuc(a1-2)[Gal(a1-3)]Gal(b1-3)GlcNAc(b1-2)Man(a1-6)]Man(b1-4)GlcNAc(b1-4)GlcNAc
# Method in brief: as §1
# [22] = target: Fuc(a1-2)[Gal(a1-3)]Gal(b1-3)GlcNAc(b1-2)Man(a1-3)[Fuc(a1-2)[Gal(a1-3)]Gal(b1-3)GlcNAc(b1-2)Man(a1-6)]Man(b1-4)GlcNAc(b1-4)[Fuc(a1-6)]GlcNAc
# Method in brief: as §1
# [23] = target: Fuc(a1-2)[Gal(a1-3)]Gal(b1-3)GlcNAc(b1-3)GalNAc
# Method in brief: as §1
# [24] = target: Fuc(a1-2)[Gal(a1-3)]Gal(b1-3)GlcNAc(b1-6)GalNAc
# Method in brief: as §1
# [25] = target: Fuc(a1-2)[Gal(a1-3)]Gal(b1-4)Glc
# Method in brief: as §1
# [26] = target: Fuc(a1-2)[Gal(a1-3)]Gal(b1-4)GlcNAc
# Method in brief: as §1
# [27] = target: Fuc(a1-2)[Gal(a1-3)]Gal(b1-4)GlcNAc(b1-2)Man
# Method in brief: as §1
# [28] = target: Fuc(a1-2)[Gal(a1-3)]Gal(b1-4)GlcNAc(b1-2)Man(a1-3)[Fuc(a1-2)[Gal(a1-3)]Gal(b1-4)GlcNAc(b1-2)Man(a1-6)]Man(b1-4)GlcNAc(b1-4)GlcNAc
# Method in brief: as §1
binder,measurement,setting,value
B1,glycan array binding signal (z-score),[1],-0.242
same,glycan array binding signal (z-score),[2],-0.552
same,glycan array binding signal (z-score),[3],-0.422
same,glycan array binding signal (z-score),[4],-0.343
same,glycan array binding signal (z-score),[5],-0.314
same,glycan array binding signal (z-score),[6],-0.209
same,glycan array binding signal (z-score),[7],-0.419
same,glycan array binding signal (z-score),[8],-0.36
same,glycan array binding signal (z-score),[9],-0.04
same,glycan array binding signal (z-score),[10],-0.318
same,glycan array binding signal (z-score),[11],-0.265
same,glycan array binding signal (z-score),[12],0.224
same,glycan array binding signal (z-score),[13],-0.263
same,glycan array binding signal (z-score),[14],-0.303
same,glycan array binding signal (z-score),[15],-0.329
same,glycan array binding signal (z-score),[16],-0.43
same,glycan array binding signal (z-score),Fuc(a1-2)Gal6S(b1-4)Glc,-0.511
same,glycan array binding signal (z-score),[17],-0.19
same,glycan array binding signal (z-score),Fuc(a1-2)[Gal(a1-3)]Gal,-0.157
same,glycan array binding signal (z-score),[18],0.035
same,glycan array binding signal (z-score),[19],-0.174
same,glycan array binding signal (z-score),[20],-0.399
same,glycan array binding signal (z-score),[21],3.63
same,glycan array binding signal (z-score),[22],-0.045
same,glycan array binding signal (z-score),[23],-0.111
same,glycan array binding signal (z-score),[24],0.31
same,glycan array binding signal (z-score),[25],-0.462
same,glycan array binding signal (z-score),[26],-0.33
same,glycan array binding signal (z-score),[27],0.617
same,glycan array binding signal (z-score),[28],0.026
